# Test results from the supplement of paper PMC8728848.
# The list shows a part of the results.
# B1: OrysaEULS2 (Oryza sativa) (protein)
# chain: MVYCRANPNYAMTARNGAVVLAPANPKDEYQHWIKDMRWSTSIKDEEGYPAFALVNKATGQAIKHSLGQSHPVRLVPYNPEVMDESVLWTESRDVGNGFRCIRMVNNIYLNFDAFHGDKYHGGVRDGTDIVLWKWCEGDNQRWKIQPYYILEQKLISEEDLNSAVDHHHHHH
# Columns and labels:
# Experiment in all cases: glycan array binding signal (z-score within array); higher = stronger binding
# Details in all cases: glycan notation: IUPAC condensed, linker removed
# [1] = target: Neu5Ac(a2-3)Gal(b1-4)GlcNAc(b1-3)Gal(b1-4)GlcNAc(b1-2)Man(a1-3)[Neu5Ac(a2-3)Gal(b1-4)GlcNAc(b1-3)Gal(b1-4)GlcNAc(b1-2)Man(a1-6)]Man(b1-4)GlcNAc(b1-4)GlcNAc
# In short: (§1)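 Arrays were curated from the Consortium for Functional Glycomics database, 3228 in total, and kept only where the protein sequence was available. Binding is expressed as a within-array Z-score. This score was averaged across arrays of the same protein sequence at different concentrations or buffers and across linkers, and negative values can be read as non-binding.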
# [2] = target: Neu5Ac(a2-3)Gal(b1-4)GlcNAc(b1-3)Gal(b1-4)GlcNAc(b1-3)Gal(b1-4)GlcNAc
# In short: as §1
# [3] = target: Neu5Ac(a2-3)Gal(b1-4)GlcNAc(b1-3)Gal(b1-4)GlcNAc(b1-3)Gal(b1-4)GlcNAc(b1-2)Man(a1-3)[Neu5Ac(a2-3)Gal(b1-4)GlcNAc(b1-3)Gal(b1-4)GlcNAc(b1-3)Gal(b1-4)GlcNAc(b1-2)Man(a1-6)]GalNAc
# In short: as §1
# [4] = target: Neu5Ac(a2-3)Gal(b1-4)GlcNAc(b1-3)Gal(b1-4)GlcNAc(b1-3)GalNAc
# In short: as §1
# [5] = target: Neu5Ac(a2-3)Gal(b1-4)GlcNAc(b1-3)Gal(b1-4)GlcNAc(b1-3)[Neu5Ac(a2-3)Gal(b1-4)GlcNAc(b1-3)Gal(b1-4)GlcNAc(b1-6)]GalNAc
# In short: as §1
# [6] = target: Neu5Ac(a2-3)Gal(b1-4)GlcNAc(b1-3)Gal(b1-4)GlcNAc(b1-6)[Gal(b1-3)]GalNAc
# In short: as §1
# [7] = target: Neu5Ac(a2-3)Gal(b1-4)GlcNAc(b1-3)Gal(b1-4)[Fuc(a1-3)]GlcNAc
# In short: as §1
# [8] = target: Neu5Ac(a2-3)Gal(b1-4)GlcNAc(b1-3)GalNAc
# In short: as §1
# [9] = target: Neu5Ac(a2-3)Gal(b1-4)GlcNAc(b1-3)[Neu5Ac(a2-3)Gal(b1-4)GlcNAc(b1-6)]GalNAc
# In short: as §1
# [10] = target: Neu5Ac(a2-3)Gal(b1-4)GlcNAc(b1-6)GalNAc
# In short: as §1
# [11] = target: Neu5Ac(a2-3)Gal(b1-4)GlcNAc(b1-6)[Gal(b1-3)]GalNAc
# In short: as §1
# [12] = target: Neu5Ac(a2-3)Gal(b1-4)GlcNAc(b1-6)[Neu5Ac(a2-3)Gal(b1-3)]GalNAc
# In short: as §1
# [13] = target: Neu5Ac(a2-3)Gal(b1-4)GlcNAc6S
# In short: as §1
# [14] = target: Neu5Ac(a2-3)Gal(b1-4)[Fuc(a1-3)]GlcNAc
# In short: as §1
# [15] = target: Neu5Ac(a2-3)Gal(b1-4)[Fuc(a1-3)]GlcNAc(b1-2)Man
# In short: as §1
# [16] = target: Neu5Ac(a2-3)Gal(b1-4)[Fuc(a1-3)]GlcNAc(b1-3)Gal
# In short: as §1
# [17] = target: Neu5Ac(a2-3)Gal(b1-4)[Fuc(a1-3)]GlcNAc(b1-3)Gal(b1-4)GlcNAc
# In short: as §1
# [18] = target: Neu5Ac(a2-3)Gal(b1-4)[Fuc(a1-3)]GlcNAc(b1-3)Gal(b1-4)[Fuc(a1-3)]GlcNAc(b1-3)Gal(b1-4)[Fuc(a1-3)]GlcNAc
# In short: as §1
# [19] = target: Neu5Ac(a2-3)Gal(b1-4)[Fuc(a1-3)]GlcNAc(b1-3)GalNAc
# In short: as §1
# [20] = target: Neu5Ac(a2-3)Gal(b1-4)[Fuc(a1-3)]GlcNAc(b1-6)[Gal(b1-3)]GalNAc
# In short: as §1
# [21] = target: Neu5Ac(a2-3)Gal(b1-4)[Fuc(a1-3)]GlcNAc(b1-6)[Neu5Ac(a2-3)Gal(b1-3)]GalNAc
# In short: as §1
# [22] = target: Neu5Ac(a2-3)Gal(b1-4)[Fuc(a1-3)]GlcNAc6S
# In short: as §1
# [23] = target: Neu5Ac(a2-3)Gal6S(b1-4)GlcNAc
# In short: as §1
# [24] = target: Neu5Ac(a2-3)Gal6S(b1-4)[Fuc(a1-3)]GlcNAc
# In short: as §1
# Neu5Ac(a2-3)GalNAc = target: Neu5Ac(a2-3)GalNAc
# In short: as §1
# [25] = target: Neu5Ac(a2-3)GalNAc(b1-4)GlcNAc
# In short: as §1
# [26] = target: Neu5Ac(a2-3)[GalNAc(b1-4)]Gal(b1-4)Glc
# In short: as §1
# [27] = target: Neu5Ac(a2-3)[GalNAc(b1-4)]Gal(b1-4)GlcNAc
# In short: as §1
# [28] = target: Neu5Ac(a2-3)[GalNAc(b1-4)]Gal(b1-4)GlcNAc(b1-3)GalNAc
# In short: as §1
# [29] = target: Neu5Ac(a2-3)[Neu5Ac(a2-6)]GalNAc
# In short: as §1
# Neu5Ac(a2-6)Gal = target: Neu5Ac(a2-6)Gal
# In short: as §1
# [30] = target: Neu5Ac(a2-6)Gal(b1-3)GlcNAc(b1-3)[Gal(b1-4)GlcNAc(b1-6)]Gal(b1-4)Glc
# In short: as §1
# Neu5Ac(a2-6)Gal(b1-4)Glc = target: Neu5Ac(a2-6)Gal(b1-4)Glc
# In short: as §1
# [31] = target: Neu5Ac(a2-6)Gal(b1-4)GlcNAc
# In short: as §1
# [32] = target: Neu5Ac(a2-6)Gal(b1-4)GlcNAc(b1-2)Man
# In short: as §1
# [33] = target: Neu5Ac(a2-6)Gal(b1-4)GlcNAc(b1-2)Man(a1-3)Man(b1-4)GlcNAc(b1-4)GlcNAc
# In short: as §1
# [34] = target: Neu5Ac(a2-6)Gal(b1-4)GlcNAc(b1-2)Man(a1-3)[Gal(b1-4)GlcNAc(b1-2)Man(a1-6)]Man(b1-4)GlcNAc(b1-4)GlcNAc
# In short: as §1
# [35] = target: Neu5Ac(a2-6)Gal(b1-4)GlcNAc(b1-2)Man(a1-3)[GlcNAc(b1-2)Man(a1-6)]Man(b1-4)GlcNAc(b1-4)GlcNAc
# In short: as §1
# [36] = target: Neu5Ac(a2-6)Gal(b1-4)GlcNAc(b1-2)Man(a1-3)[GlcNAc(b1-2)Man(b1-4)GlcNAc(b1-2)Man(a1-6)]Man(b1-4)GlcNAc(b1-4)GlcNAc
# In short: as §1
# [37] = target: Neu5Ac(a2-6)Gal(b1-4)GlcNAc(b1-2)Man(a1-3)[GlcNAc(b1-4)][Neu5Ac(a2-6)Gal(b1-4)GlcNAc(b1-2)Man(a1-6)]Man(b1-4)GlcNAc(b1-4)GlcNAc
# In short: as §1
# [38] = target: Neu5Ac(a2-6)Gal(b1-4)GlcNAc(b1-2)Man(a1-3)[Man(a1-6)]Man(b1-4)GlcNAc(b1-4)GlcNAc
# In short: as §1
# [39] = target: Neu5Ac(a2-6)Gal(b1-4)GlcNAc(b1-2)Man(a1-3)[Neu5Ac(a2-3)Gal(b1-4)GlcNAc(b1-2)Man(a1-6)]Man(b1-4)GlcNAc(b1-4)GlcNAc
# In short: as §1
# [40] = target: Neu5Ac(a2-6)Gal(b1-4)GlcNAc(b1-2)Man(a1-3)[Neu5Ac(a2-6)Gal(b1-4)GlcNAc(b1-2)Man(a1-6)]Man(b1-4)GlcNAc(b1-4)GlcNAc
# In short: as §1
# [41] = target: Neu5Ac(a2-6)Gal(b1-4)GlcNAc(b1-2)Man(a1-3)[Neu5Ac(a2-6)Gal(b1-4)GlcNAc(b1-2)Man(a1-6)]Man(b1-4)GlcNAc(b1-4)[Fuc(a1-6)]GlcNAc
# In short: as §1
# [42] = target: Neu5Ac(a2-6)Gal(b1-4)GlcNAc(b1-2)Man(a1-6)Man(b1-4)GlcNAc(b1-4)GlcNAc
# In short: as §1
binder,measurement,setting,value
B1,glycan array binding signal (z-score),[1],0.115
same,glycan array binding signal (z-score),[2],-0.187
same,glycan array binding signal (z-score),[3],0.048
same,glycan array binding signal (z-score),[4],-0.304
same,glycan array binding signal (z-score),[5],-0.252
same,glycan array binding signal (z-score),[6],-0.307
same,glycan array binding signal (z-score),[7],-0.206
same,glycan array binding signal (z-score),[8],-0.192
same,glycan array binding signal (z-score),[9],-0.208
same,glycan array binding signal (z-score),[10],-0.148
same,glycan array binding signal (z-score),[11],-0.197
same,glycan array binding signal (z-score),[12],-0.208
same,glycan array binding signal (z-score),[13],-0.193
same,glycan array binding signal (z-score),[14],-0.198
same,glycan array binding signal (z-score),[15],-0.235
same,glycan array binding signal (z-score),[16],-0.179
same,glycan array binding signal (z-score),[17],-0.212
same,glycan array binding signal (z-score),[18],-0.208
same,glycan array binding signal (z-score),[19],-0.145
same,glycan array binding signal (z-score),[20],-0.145
same,glycan array binding signal (z-score),[21],-0.25
same,glycan array binding signal (z-score),[22],-0.223
same,glycan array binding signal (z-score),[23],-0.173
same,glycan array binding signal (z-score),[24],-0.23
same,glycan array binding signal (z-score),Neu5Ac(a2-3)GalNAc,-0.202
same,glycan array binding signal (z-score),[25],-0.206
same,glycan array binding signal (z-score),[26],-0.19
same,glycan array binding signal (z-score),[27],-0.207
same,glycan array binding signal (z-score),[28],-0.173
same,glycan array binding signal (z-score),[29],-0.222
same,glycan array binding signal (z-score),Neu5Ac(a2-6)Gal,-0.192
same,glycan array binding signal (z-score),[30],-0.21
same,glycan array binding signal (z-score),Neu5Ac(a2-6)Gal(b1-4)Glc,-0.21
same,glycan array binding signal (z-score),[31],-0.209
same,glycan array binding signal (z-score),[32],-0.246
same,glycan array binding signal (z-score),[33],0.791
same,glycan array binding signal (z-score),[34],1.15
same,glycan array binding signal (z-score),[35],0.716
same,glycan array binding signal (z-score),[36],0.366
same,glycan array binding signal (z-score),[37],-0.247
same,glycan array binding signal (z-score),[38],0.999
same,glycan array binding signal (z-score),[39],1.08
same,glycan array binding signal (z-score),[40],0.546
same,glycan array binding signal (z-score),[41],-0.124
same,glycan array binding signal (z-score),[42],-0.207
